Data reported in the supplement of paper PMC4967469.
The IC50 comes from the fitted curve, where viability falls to half of the control; where the fit passes the top or lowest dose, that dose stands as a limit. AUC is the area under the same curve over the 256-fold range up to the top dose, as a fraction; values near 1 show little effect. For part of these data: Where the top dose is marked as inferred, it was derived from the fitted curves, not read from the paper.

Assays:
Experiment in all cases: Viability of human cancer cell lines after 72 h of drug (GDSC screen)
Vorinostat = compound: O=C(CCCCCCC(=O)Nc1ccccc1)NO [Vorinostat]; conditions: top dose 10 µM
Protocol: (§1)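 Human cancer cell lines in 384-well plates, medium with 10% serum, drug for 72 h over a 256-fold dose range (nine 2-fold or five 4-fold steps up to the top dose). Adherent lines were fixed and stained with the nucleic acid dye Syto60, suspension lines read with resazurin; signal relative to control wells, capped at 0 and 100%. One two-parameter sigmoid per drug and line, fitted in a mixed model over all curves with the slope shared within a line.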

Methotrexate = compound: CN(Cc1cnc2nc(N)nc(N)c2n1)c1ccc(C(=O)N[C@@H](CCC(=O)O)C(=O)O)cc1 [Methotrexate]; conditions: top dose 0.2 µM
Protocol: as §1

Axitinib = compound: CNC(=O)c1ccccc1Sc1ccc2c(/C=C/c3ccccn3)n[nH]c2c1 [Axitinib]; conditions: top dose 2 µM
Protocol: as §1

Dabrafenib = compound: CC(C)(C)c1nc(-c2cccc(NS(=O)(=O)c3c(F)cccc3F)c2F)c(-c2ccnc(N)n2)s1 [Dabrafenib]; conditions: top dose 10 µM
Protocol: as §1

SN-38 = compound: CCc1c2c(nc3ccc(O)cc13)-c1cc3c(c(=O)n1C2)COC(=O)[C@]3(O)CC [SN-38]; conditions: top dose 0.05 µM; top dose inferred
Protocol: as §1

| Cell Line | AUC (Vorinostat) | IC50 (Vorinostat) | AUC (Methotrexate) | IC50 (Methotrexate) | AUC (Axitinib) | IC50 (Axitinib) | AUC (Dabrafenib) | IC50 (Dabrafenib) | AUC (SN-38) | IC50 (SN-38) |
| --- | --- | --- | --- | --- | --- | --- | --- | --- | --- | --- |
| AGS (stomach, adherent) | 0.492 | 0.597 µM | 0.982 | > 0.2 µM | 0.938 | > 2 µM |  |  |  |  |
| A4-Fuk (B-cell lymphoma, suspension) | 0.521 | 0.713 µM |  |  | 0.838 | 1.43 µM | 0.975 | > 10 µM | 0.691 | 0.011 µM |
| MHH-NB-11 (neuroblastoma, adherent) | 0.634 | 1.52 µM | 0.905 | > 0.2 µM | 0.804 | 1.12 µM |  |  |  |  |
| MDA-MB-175-VII (breast, adherent) | 0.814 | 6.17 µM |  |  | 0.988 | > 2 µM | 0.972 | > 10 µM | 0.777 | 0.0223 µM |
| OAW-42 (ovary, adherent) | 0.726 | 2.93 µM |  |  | 0.928 | > 2 µM | 0.87 | > 10 µM | 0.579 | 0.00522 µM |
| MOLT-13 (T-cell lymphoblastic leukaemia, suspension) | 0.545 | 0.814 µM |  |  | 0.941 | > 2 µM | 0.713 | 2.29 µM | 0.322 | 0.00107 µM |
| KMS-12-BM (myeloma, suspension) | 0.378 | 0.307 µM | 0.914 | > 0.2 µM | 0.917 | > 2 µM |  |  |  |  |
| 201T (lung adenocarcinoma, adherent) | 0.728 | 3.34 µM | 0.909 | > 0.2 µM | 0.96 | > 2 µM |  |  |  |  |
| MY-M12 (leukaemia, suspension) | 0.472 | 0.518 µM | 0.565 | 0.0192 µM | 0.715 | 0.555 µM |  |  |  |  |
| NCI-H1703 (lung adenocarcinoma, adherent) | 0.85 | > 10 µM |  |  | 0.241 | 0.0186 µM | 0.948 | > 10 µM | 0.719 | 0.0152 µM |
| MKN28 (stomach, adherent) | 0.699 | 2.29 µM | 0.923 | > 0.2 µM | 0.969 | > 2 µM |  |  |  |  |
| KELLY (neuroblastoma, adherent) | 0.607 | 1.19 µM |  |  | 0.916 | > 2 µM | 0.979 | > 10 µM | 0.398 | 0.00169 µM |
| NCI-H446 (small cell lung carcinoma, semi-adherent) | 0.649 | 1.67 µM |  |  | 0.899 | > 2 µM | 0.973 | > 10 µM | 0.725 | 0.0144 µM |
| OE19 (oesophagus, adherent) | 0.804 | 5.81 µM |  |  | 0.938 | > 2 µM | 0.972 | > 10 µM | 0.935 | > 0.05 µM |
| AN3-CA (endometrium, adherent) | 0.789 | 4.88 µM | 0.976 | > 0.2 µM |  |  | 0.917 | > 10 µM | 0.826 | 0.0343 µM |
| SNU-C2B (large intestine, adherent) | 0.762 | 4.69 µM |  |  | 0.98 | > 2 µM | 0.97 | > 10 µM | 0.644 | 0.00889 µM |

| Cell Line | AUC (Vorinostat) | IC50 (Vorinostat) | AUC (Methotrexate) | IC50 (Methotrexate) | AUC (Axitinib) | IC50 (Axitinib) | AUC (Dabrafenib) | IC50 (Dabrafenib) | AUC (SN-38) | IC50 (SN-38) |
| --- | --- | --- | --- | --- | --- | --- | --- | --- | --- | --- |
| H3118 (head and neck, adherent) | 0.478 | 0.541 µM |  |  | 0.914 | > 2 µM | 0.97 | > 10 µM | 0.618 | 0.00682 µM |
| CAL-12T (non-small cell lung carcinoma, adherent) | 0.782 | 4.71 µM |  |  | 0.945 | > 2 µM | 0.904 | > 10 µM | 0.931 | > 0.05 µM |
| JiyoyeP-2003 (Burkitt lymphoma, suspension) | 0.703 | 2.15 µM |  |  | 0.979 | > 2 µM | 0.962 | > 10 µM | 0.701 | 0.0106 µM |
| GAK (melanoma, adherent) | 0.802 | 4.64 µM | 0.983 | > 0.2 µM |  |  | 0.897 | > 10 µM | 0.854 | 0.0364 µM |
| KURAMOCHI (ovary, adherent) | 0.809 | 6.24 µM |  |  | 0.965 | > 2 µM | 0.982 | > 10 µM | 0.895 | > 0.05 µM |
| HCC38 (breast, adherent) | 0.887 | > 10 µM |  |  | 0.968 | > 2 µM | 0.985 | > 10 µM | 0.612 | 0.00653 µM |
| NCI-H2052 (mesothelioma, adherent) | 0.861 | > 10 µM | 0.943 | > 0.2 µM | 0.939 | > 2 µM |  |  |  |  |
| EFM-19 (breast, adherent) | 0.609 | 1.46 µM |  |  | 0.916 | > 2 µM | 0.974 | > 10 µM | 0.824 | > 0.05 µM |
| HCC1428 (breast, adherent) | 0.478 | 0.541 µM |  |  | 0.975 | > 2 µM | 0.96 | > 10 µM | 0.904 | > 0.05 µM |
| JSC-1 (B-cell lymphoma, suspension) | 0.521 | 0.714 µM |  |  | 0.953 | > 2 µM | 0.959 | > 10 µM | 0.468 | 0.00257 µM |
| NCI-H64 (small cell lung carcinoma, suspension) | 0.569 | 0.919 µM | 0.972 | > 0.2 µM | 0.98 | > 2 µM |  |  |  |  |
| HCC1569 (breast, adherent) | 0.81 | 7.53 µM |  |  | 0.911 | > 2 µM | 0.948 | > 10 µM | 0.851 | > 0.05 µM |
| KYSE-140 (oesophagus, adherent) | 0.761 | 4 µM | 0.861 | > 0.2 µM | 0.961 | > 2 µM |  |  |  |  |
| VMRC-RCW (kidney, adherent) | 0.85 | 6.78 µM | 0.962 | > 0.2 µM | 0.957 | > 2 µM |  |  |  |  |
| NB69 (neuroblastoma, adherent) | 0.437 | 0.43 µM | 0.983 | > 0.2 µM | 0.974 | > 2 µM |  |  |  |  |
| HCC1419 (breast, adherent) | 0.633 | 1.7 µM |  |  | 0.877 | > 2 µM | 0.907 | > 10 µM | 0.979 | > 0.05 µM |
